Measured values published in PMC4336329 (PLoS ONE, 2015).
About 2,200 (0.71%) of roughly 310,000 compounds showed an effect of 50% or more. The effect is printed as a negative number. The list shows a part of the results.

Target: human ether-à-go-go-related gene (hERG) potassium channel (human, UniProt Q12809)
Test: primary screen, population patch clamp on CHO cells stably expressing hERG

Chain of human ether-à-go-go-related gene (hERG) potassium channel (Q12809 whole entry, looked up): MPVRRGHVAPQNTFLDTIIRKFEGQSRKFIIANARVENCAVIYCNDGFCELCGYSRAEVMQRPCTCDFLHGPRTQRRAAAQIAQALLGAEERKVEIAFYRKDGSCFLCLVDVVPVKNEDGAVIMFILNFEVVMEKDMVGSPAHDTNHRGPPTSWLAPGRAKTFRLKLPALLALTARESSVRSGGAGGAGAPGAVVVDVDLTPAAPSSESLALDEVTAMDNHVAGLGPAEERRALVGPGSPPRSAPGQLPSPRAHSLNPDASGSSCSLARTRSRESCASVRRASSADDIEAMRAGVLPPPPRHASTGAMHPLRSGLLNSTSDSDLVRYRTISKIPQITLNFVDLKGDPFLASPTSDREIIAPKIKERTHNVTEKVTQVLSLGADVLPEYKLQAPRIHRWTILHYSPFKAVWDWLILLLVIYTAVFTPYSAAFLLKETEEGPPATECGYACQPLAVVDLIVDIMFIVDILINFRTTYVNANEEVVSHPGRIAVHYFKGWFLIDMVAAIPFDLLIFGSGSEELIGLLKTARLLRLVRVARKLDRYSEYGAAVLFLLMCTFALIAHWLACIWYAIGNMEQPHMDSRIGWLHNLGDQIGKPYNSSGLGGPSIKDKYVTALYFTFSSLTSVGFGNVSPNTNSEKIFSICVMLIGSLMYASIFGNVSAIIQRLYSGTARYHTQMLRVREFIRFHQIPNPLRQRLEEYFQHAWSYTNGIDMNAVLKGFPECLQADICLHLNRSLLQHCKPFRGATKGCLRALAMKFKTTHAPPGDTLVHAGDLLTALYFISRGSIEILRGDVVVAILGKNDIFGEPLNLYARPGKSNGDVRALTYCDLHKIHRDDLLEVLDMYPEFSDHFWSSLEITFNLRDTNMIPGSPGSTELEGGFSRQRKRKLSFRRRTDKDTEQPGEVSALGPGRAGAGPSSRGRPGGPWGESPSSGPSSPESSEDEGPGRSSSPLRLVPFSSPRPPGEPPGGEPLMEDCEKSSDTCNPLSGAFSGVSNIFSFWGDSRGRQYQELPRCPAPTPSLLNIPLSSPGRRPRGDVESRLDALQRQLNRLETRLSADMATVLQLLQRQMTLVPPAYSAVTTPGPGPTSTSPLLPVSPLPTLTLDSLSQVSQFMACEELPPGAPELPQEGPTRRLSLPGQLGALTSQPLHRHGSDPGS

Compound	hERG current change (%, negative = inhibition) at 1uM
O=[N+]([O-])c1cccc(S(=O)(=O)NCCc2cccs2)c1	-6.32%
C/C(=N\OCC(=O)Nn1c(C)nc2ccccc2c1=O)c1cccs1	13.5%
COc1ccccc1OCC(=O)Nc1ccc(S(=O)(=O)N2CCN(C)CC2)cc1	7.01%
C[C@@H]1CC=C[C@H]2[C@H]1C(=O)N(Cc1ccccc1)[C@H]2c1cccc([N+](=O)[O-])c1	5.81%
COc1ccc(CC(=O)OCC(=O)NCc2ccco2)cc1OC	17.9%
Cc1ccc(Sc2cnccc2C#N)cc1	11%
Cc1ccc2c(c1)C(C)CC(C)(C)N2C(=O)CN1CCN(C)CC1.O=C(O)C(=O)O (stereo not shown)	-2.34%
O=c1[nH]c(C2CCCN(S(=O)(=O)c3ccccc3Cl)C2)nc2c1nnn2Cc1ccc2c(c1)OCCO2 (stereo not shown)	13.5%
Cc1cc(C)c2c(n1)nn1c(C)c(CCC(=O)NCc3ccco3)c(C)nc21	6.52%
O=C(Nc1ccc(Br)cc1)/C(=C/c1cccc([N+](=O)[O-])c1)NC(=O)C1CCCCC1	-3.32%
CC(C)Cc1cc(C(=O)Nc2ccc(F)cc2F)no1	8.18%
CCCCC(=O)NC(=S)Nc1cc([N+](=O)[O-])ccc1OC	0.285%
Cc1ccc(Nc2nc(C)c3c(n2)CC(C)CC3=O)c(C)c1 (stereo not shown)	6.41%
Cc1cc(-c2c(C(=O)N3CCOCC3)c(C)nn2-c2ccccc2)no1	4.93%
N#Cc1ccccc1OCC(=O)Nc1ccccc1C(=O)NC1CC1	7.89%
CCC(C)n1cnc2c(=O)oc3ccccc3c21 (stereo not shown)	8.83%
Cc1onc(-c2c(F)cccc2Cl)c1C(=O)OCC(=O)NCc1ccco1	11.6%
CC(=NCCN1CCCCC1)c1c(O)[nH]c(=O)[nH]c1=O	-1.43%
CC(=O)Oc1ccc(Oc2ccc(-c3noc(C)n3)cc2)cc1	22.5%
Nc1nc(Nc2cccc(F)c2)nc(N2CCOCC2)c1[N+](=O)[O-]	8.12%
O=C(O)C1CCCN1c1nc(C(F)(F)F)nc2ccccc12 (stereo not shown)	13.2%
CCN(C(=O)COC(=O)c1ccc(O)cc1O)c1c(N)n(Cc2ccccc2)c(=O)[nH]c1=O	0.207%

Compound	hERG current change (%, negative = inhibition) at 1uM
COc1ccc(OC(=O)CCN2C(=O)C3C4C=CC(C4)C3C2=O)cc1 (stereo not shown)	-3.36%
O=C(COc1ccccc1Cl)Nc1ccc(CN2CCOCC2)cc1	5.4%
Cc1ccc(Cl)cc1-n1c(=O)cc(N2CC(C)OC(C)C2)[nH]c1=O (stereo not shown)	0.208%
Cc1cc2ccccc2n2c(SCC(=O)N3CCc4ccccc4C3)nnc12	7.81%
Cc1cc(C(=O)NC(Cc2c[nH]c3ccccc23)C(=O)O)c(C)o1 (stereo not shown)	18.1%
CCOc1ccc(C(C)=O)cc1COC(=O)CN1C(=O)NC2(CCCC2)C1=O	10.7%
c1cc2c3c(cccc3c1)C(N1CCCCC1)=N2	-44.8%
CCOC(=O)N/N=C/c1c(F)cccc1F	12.2%
COC(=O)c1cc2sccc2n1CC(=O)N(C)c1ccccc1	11.5%
COc1cc(OC)nc(NC(=O)CSc2nnc(-c3ccccc3)n2C2CCCCC2)n1	8.74%
CCS(CC)=NS(=O)(=O)c1ccc(NC(C)=O)cc1	0.751%
Cn1cc(C(=O)C(=O)N2CCCC2)c2ccccc21	14.3%
CC(C)(CSc1ccccn1)NS(=O)(=O)c1ccccc1	1.44%
CCc1nn2c(=O)cc(COc3ccc(/C=C4\C(=N)N5N=C(C)SC5=NC4=O)cc3)nc2s1	10.6%
CCOC(=O)c1cn(-c2nc(-c3ccc(Cl)c(Cl)c3)cs2)c2c(F)c(N3CCOCC3)c(F)cc2c1=O	17.1%
CSC(=NC1CCCCC1)NS(=O)(=O)c1ccccc1	0.58%
CC(=O)Nc1cccc(NC(=O)CSc2ccc(-c3ccco3)nn2)c1	11%
CCN(CC)CCNC(=O)c1ccc(NC(=O)COc2ccccc2F)cc1.Cl	-9.43%
CCOC(=O)C1(Cc2ccccc2C(F)(F)F)CCN(CC(O)CO)CC1 (stereo not shown)	10%
COc1cccc(-c2nn(-c3ccccc3)cc2/C=C\C(=O)c2cccs2)c1	17.4%
O=C(O)c1ccc(NS(=O)(=O)c2ccc(Cl)cc2)cc1	5.71%
CCSC1=C(C#N)C(c2ccccc2Cl)CC(=O)N1 (stereo not shown)	11.9%

Compound	hERG current change (%, negative = inhibition) at 1uM
CN(Cc1nccn1C)C(=O)CC1C(=O)NCCN1Cc1ccccc1C(F)(F)F (stereo not shown)	17.7%
CC(C)(C)c1ccccc1NC(=O)c1ccc(-n2cncn2)c([N+](=O)[O-])c1	7.04%
CCN(CC)CC(=O)Nc1ccc(Cl)cc1C(=O)c1ccccc1	6.87%
CC(C(=O)NCCc1ccccc1)N1c2cccc3cccc(c23)S1(=O)=O (stereo not shown)	4.02%
COc1cccc(C(=O)NCCCN2CCN(CCCNC(=O)c3cccc(OC)c3)CC2)c1	-65.2%
Cc1ccc(N(CCCCN2C(=O)c3ccccc3C2=O)C(=O)c2ccc(Cl)s2)cc1	8.06%
O=C(CSc1ccc2nnc(-c3cccnc3)n2n1)NCc1ccc2c(c1)OCO2	4.47%
C(=C\c1ccccc1)/C=N/N1CCN(c2ccccn2)CC1	8.59%
CC(=O)OCCNC(=O)c1cc2ccccc2oc1=O	12.2%
COc1ccc(NS(=O)(=O)c2cccc(C(=O)NNC(=O)c3ccccc3OC)c2)cc1	4.27%
O=C1CC(N2CCN(Cc3ccc4c(c3)OCO4)CC2)C(=O)N1Cc1ccc(N2CCCC2=O)cc1 (stereo not shown)	10.5%
CCCCc1ccc(NC(=S)N2CCN(C(=O)c3ccco3)CC2)cc1	-6.86%
COc1ccc(CN=C2NC(=O)CC(C(=O)Nc3ccc(Cl)cc3)S2)cc1 (stereo not shown)	0.837%
CC(=O)Nc1ccc(NC(=O)CC(C)n2ccnc2)cc1 (stereo not shown)	10.8%
O=C(CC1(O)C(=O)N(Cc2cccc3ccccc23)c2ccccc21)c1cccnc1 (stereo not shown)	-1.34%
COc1cc(OC)c(OC)cc1CCC(C)NCCC(c1ccccc1)c1ccccc1.Cl (stereo not shown)	-32.4%
O=C(CSc1nnc(-c2ccc([N+](=O)[O-])cc2)o1)Nc1ccccn1	5.7%
Cc1ccc(S(=O)(=O)N(C)c2ccccc2C(=O)N2CCCC2)cc1	13.6%
COc1ccc(-n2c(SCC(=O)Nc3ccc4c(c3)OCO4)nc3c(c2=O)SCC3)cc1	6.2%
COC1(c2cc(-c3ccccc3)nc(N)n2)CCCCC1	1.88%
Cc1c2cnn(CC(=O)N3CCC4(CC3)OCCO4)c(=O)c2c(C)n1Cc1ccc(F)cc1	-13.1%
Nc1nnc(SCC(=O)NC2CCCc3ccccc32)s1 (stereo not shown)	10%

Compound	hERG current change (%, negative = inhibition) at 1uM
C=CCNC(=O)c1ccccc1S(=O)c1ccccc1C#N (stereo not shown)	7.99%
Cc1ccc2cc3c(NC(=O)c4ccco4)nn(CC(C)C)c3nc2c1	1.88%
COc1ccc(/C=N/NC(=O)CCn2nnc3ccccc32)cc1	11.5%
COc1ccccc1NC(=S)Nc1cccc(F)c1	14.2%
CNC(=O)N(O)C1N(C)C(=O)N(CC(=O)OC)C1(C)C (stereo not shown)	2.06%
CC(C)(C)c1ccc(-c2c(C(=O)O)c(C(=O)O)c3n2CSC3)cc1	10.8%
COc1ccccc1C(=O)NCCC(=O)NCc1ccccn1	5.39%
COc1ccc(C(=O)N2N=C(c3cccc(OC)c3)CC2(O)C(F)(F)F)cc1 (stereo not shown)	7.97%
Cc1cccn2c(=O)c3cc(C(=O)N4CCN(Cc5ccccc5)CC4)sc3nc12	-8.01%
Cc1ccc(CNC(=O)c2ccc(NS(=O)(=O)c3c(C)noc3C)cc2)cc1	3.45%
COc1cc(Cl)c(C)cc1Nc1ncccn1	7.69%
Cc1oc(-c2ccc(Cl)cc2)nc1CN1CCCC(C(=O)NCc2cccnc2)C1 (stereo not shown)	-43.6%
COc1cc(/C=N/n2cnnc2)ccc1OCCSc1ccc(C)cc1	2.9%
C(=C\c1ccccc1)/CN1CCN(c2ncnc3c2oc2ccccc23)CC1	-8.87%
Cc1cc(NC(=O)NC(C)(C(F)(F)F)C(F)(F)F)no1	9.95%
COc1ccccc1/C=C/C(C)=O	12.4%
CC1=C(C(=O)OC(C)C)C(c2ccncc2)n2ncnc2N1 (stereo not shown)	7.05%
C=C(C)COc1ccc(-c2nc(N)ncc2-c2ccc(Br)cc2)c(O)c1	20.8%
CN(C(=O)c1ccc2nccnc2c1)C1CCCCC1	13.8%
Cc1cc(C)n(-c2cc(C(C)(C)C)nc3c(-c4ccc(Cl)cc4)cnn23)n1	-1.68%
Cc1ccc(S(=O)(=O)NNC(=S)Nc2cccc(C)c2C)cc1	2.3%
CCOC(=O)CN(C(=O)CSc1nnc(-c2ccncc2)n1CCCOC)c1ccccc1	15.5%
